The values that follow come from the supplement of paper PMC10338343.

± gives the standard deviation. In all, about 3,700 sequences were measured (“pre-steady-state target cleavage rate”: median about 0.02, highest 2% from about 0.23 on). This is a selection; strong and weak results do not stand in their true shares.
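Further: 1 nM active piRISC with 0.1 nM target library at 33 °C single turnover.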

The assay deals with MILI (PIWIL2) piRISC loaded with Kctd7 piRNA (26 nt). Briefly: pre-steady-state target cleavage rate (min^-1); MIWI and MILI are mouse PIWI proteins and EfPiwi is from a freshwater sponge; tags in brackets are library labels; higher = faster piRNA-guided slicing of the target. As to conditions: guide: Kctd7 piRNA 5'p-UGUUAAUCUCUCAGAGAAGGUGACAG; auxiliary factor: 500 nM mouse GTSF1. In a few lines: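 A transcribed, DNA-blocked target RNA library […] was incubated at 33 °C for 0–8 or 0–960 min with 1 nM active affinity-purified piRISC carrying one synthetic guide, in HEPES–potassium acetate buffer with or without 500 nM GTSF1 partner protein. Uncleaved targets were then sequenced and normalised to depth and to weakly complementary targets. Data from three trials were pooled, with k3 capped at 0.0001 min^-1, and a burst-and-steady-state fit yielded the pre-steady-state cleavage rate.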
With UAGUGACAGACCUUCAGUGAGAGAUUAACA, the “pre-steady-state target cleavage rate” value is 0.0256 ± 0.0089.

As for UAGUGACAGUGCAUCUCUGAGAGAUUAACA, the “pre-steady-state target cleavage rate” value came out at 0.00598 ± 0.0027.

UAGUGACUCACCUUCACUGUGAGAUUAACA: the “pre-steady-state target cleavage rate” value stood at 0.041 ± 0.0056.

On to UAGUGUGUCACCUUCUGUGAGAGAUUUUGA, for which the “pre-steady-state target cleavage rate” value is 0.00564 ± 0.0044.

On to UAGUCUGUCACCUUCUCAGAGAGAUUAACA, for which the “pre-steady-state target cleavage rate” value is 0.177 ± 0.019.

Consider UAGUGACAGACCUUCACUGACAGAUUAACA, for which the “pre-steady-state target cleavage rate” value was found to be 0.0267 ± 0.013.

Take UAGUGACAGUGGAUCACUGAGAGAUUAUCA: the “pre-steady-state target cleavage rate” value is less than 0.0001.

Take UAGUCUCUCACCUUCUCUGAGAGAAUAACA: the “pre-steady-state target cleavage rate” value was determined as 0.0817 ± 0.019.

As for UAGUGUGUCACCUUCACAGAGAGAUUAACA, the “pre-steady-state target cleavage rate” value was determined as 0.0868 ± 0.0081.

Consider UAGUGAGUCACCUUCUCUGAGGAGAUUAACA, for which the “pre-steady-state target cleavage rate” value is 0.0247 ± 0.011.

For UAGUGACUCUCCUUCUCUGAGAGAUUAACA, the “pre-steady-state target cleavage rate” value is 0.131 ± 0.013.

As to UAGUGAGUCAGGUUCUCUGAGAGAUUAACA, the “pre-steady-state target cleavage rate” value was 0.113 ± 0.0081.

For UAGUCUGUCACCUUCUGAGAGAGAUUUUGA, the “pre-steady-state target cleavage rate” value is 0.0143 ± 0.0076.

With UAGUGAGUCACCAUCUCUCAGAGAUUAACA, the “pre-steady-state target cleavage rate” value turned out to be 0.045 ± 0.01.

For UAGUGAGUCACCUUCUGUGAGAGAUUAUGA, the “pre-steady-state target cleavage rate” value turned out to be 0.02 ± 0.0074.

On to UAGUGAGUCACCUUGUCUGAGAGAUUUACA, for which the “pre-steady-state target cleavage rate” value is 0.0249 ± 0.012.

Take UAGUCUAUCACCUUCUCUGAGAGAUUAACA: the “pre-steady-state target cleavage rate” value was 0.19 ± 0.015.

On to UAGUGACAGUGCUCUCUCUGAGAGAUUAACA, for which the “pre-steady-state target cleavage rate” value amounted to 0.0146 ± 0.0033.

For UAGUCAGUCACGUUCUCUGAGAGAUUAACA, the “pre-steady-state target cleavage rate” value was 0.199 ± 0.0078.

Consider UAGUGUCUCAGCUUCUCUGAGAGAUUAACA, for which the “pre-steady-state target cleavage rate” value amounted to 0.162 ± 0.018.

UAGUGUGUCACCUUCUCUCAGACAUUAACA: the “pre-steady-state target cleavage rate” value was 0.0267 ± 0.0093.

In the case of UAGUCUGUCACCUAGACUGAGAGAUUAACA, the “pre-steady-state target cleavage rate” value came out at 0.0691 ± 0.004.

For the sequence UAGUGACAGACCUGUCUCUGAGAGAUUAACA, the “pre-steady-state target cleavage rate” value was determined as 0.0606 ± 0.0084.

For the sequence UAGUGACAGUGCUACUGUGAGAGAUUAACA, the “pre-steady-state target cleavage rate” value is 0.00417 ± 0.0017.

As to UAGUGACAGUGCUUCAGUGAGAGAUUAACA, the “pre-steady-state target cleavage rate” value was 0.00976 ± 0.0039.

For the sequence UAGUGUGUCAGCUUCACUGAGAGAUUAACA, the “pre-steady-state target cleavage rate” value came out at 0.12 ± 0.0093.

On to “UAGUGACAGUGGUUCUCUGAGAGAUUAACC [g2:g18:cont:t1C]”, for which the “pre-steady-state target cleavage rate” value turned out to be 0.00642 ± 0.0014.

As to UAGUCUGAGUCCUUCUCUGAGAGAUUAAGA, the “pre-steady-state target cleavage rate” value is 0.0185 ± 0.0054.

In the case of UAGUGACUCACCUUCGUCUGAGAGAUUAACA, the “pre-steady-state target cleavage rate” value was found to be 0.0458 ± 0.0089.

Take UAGUGACACACUCUUCUCUGAGAGAUUAACA: the “pre-steady-state target cleavage rate” value came to 0.127 ± 0.018.

Take UAGUCUGUCACCUACUCUGAGAGAUUAAGA: the “pre-steady-state target cleavage rate” value worked out at 0.0796 ± 0.014.

On to UAGUGUGUGACCUUCUCUGUGAGAUUAACA, for which the “pre-steady-state target cleavage rate” value came to 0.0483 ± 0.007.

Regarding UAGUGAGUCACCUGUCUCUGAGAGAUUAACA, the “pre-steady-state target cleavage rate” value is 0.213 ± 0.018.

Consider UAGUGACACACGUUCUCUGAGAGAUUAACA, for which the “pre-steady-state target cleavage rate” value was 0.154 ± 0.013.

UAGUGACAGUGCUUCUGUGAGAGUUUAACA: the “pre-steady-state target cleavage rate” value is 0.00779 ± 0.0029.

For the sequence UAGUGACACACCUAUCUCUGAGAGAUUAACA, the “pre-steady-state target cleavage rate” value worked out at 0.127 ± 0.01.

In the case of UAGUGACAGUGCUUGACUGAGAGAUUAACA, the “pre-steady-state target cleavage rate” value came out at 0.0076 ± 0.0029.

On to UAGUGAGUCACCUUCUCUGGGAGAUUAACA, for which the “pre-steady-state target cleavage rate” value is 0.185 ± 0.016.

On to UAGUGAGUCACCUUCUCAGAGAGAUUAUGA, for which the “pre-steady-state target cleavage rate” value was 0.0278 ± 0.012.

With UAGUCUGUCAGCUUCUCUGAGAGAUAAACA, the “pre-steady-state target cleavage rate” value is 0.0441 ± 0.008.

Take UAGUGUGUCACCUUCUCUGUGAGAUAAACA: the “pre-steady-state target cleavage rate” value was 0.0219 ± 0.0069.

As for UAGUGACAGUGCUUCUCUCUCAGAUUAACA, the “pre-steady-state target cleavage rate” value was 0.00315 ± 0.0025.

As for UAGUGACACACCUUCACUGAGACAUUAACA, the “pre-steady-state target cleavage rate” value stood at 0.103 ± 0.013.

As for UAGUGUGUCACCUUCGCUGAGAGAUUAACA, the “pre-steady-state target cleavage rate” value came to 0.134 ± 0.018.

For UAGUGACAGUGGAAGUCUGAGAGAUUCACA, the “pre-steady-state target cleavage rate” value is less than 0.0001.

Consider UAGUGACACACCUUGUCUGAGAGAUUUACA, for which the “pre-steady-state target cleavage rate” value was found to be 0.0234 ± 0.0099.

UAGUCUGUCACCUUCUCUGUGAGAAUAACA: the “pre-steady-state target cleavage rate” value was 0.0177 ± 0.0055.

As to UAGUGUGCUCACCUUCUCUGAGAGAUUAACA, the “pre-steady-state target cleavage rate” value was determined as 0.205 ± 0.013.

For UAGUCUGUCACCUUCACUGAGACAUUAACA, the “pre-steady-state target cleavage rate” value was 0.098 ± 0.013.

As for UAGUGACAGUGGAAGUCUGAGAGAUUUUCA, the “pre-steady-state target cleavage rate” value is less than 0.0001.

With UAGUGACACACCUUCUCUGAGAGAUAUACA, the “pre-steady-state target cleavage rate” value was determined as 0.031 ± 0.016.

In the case of UAGUGACAGUGGUAUCUCUGAGAGAUUAACA, the “pre-steady-state target cleavage rate” value was 0.00403 ± 0.002.

With UAGUGUGUCUCCUUCUCUGAGAGAUUAUCA, the “pre-steady-state target cleavage rate” value was determined as 0.0619 ± 0.011.

For the sequence UAGUGACUCACCUUGUCUGAGAGUUUAACA, the “pre-steady-state target cleavage rate” value turned out to be 0.0235 ± 0.011.

Regarding UAGUGAGUCUCGUUCUCUGAGAGAUUAACA, the “pre-steady-state target cleavage rate” value worked out at 0.133 ± 0.0076.

UAGUGACACACCUUCACUGAGAGAUUAUCA: the “pre-steady-state target cleavage rate” value came to 0.0372 ± 0.014.

Consider UAGUGACACACCUUCUCUGUGAGAUAAACA, for which the “pre-steady-state target cleavage rate” value worked out at 0.024 ± 0.0088.

Regarding UAGUGACUCCCCUUCUCUGAGAGAUUAACA, the “pre-steady-state target cleavage rate” value came out at 0.154 ± 0.014.

For UAGUGUGUCACUUUCUCUGAGAGAUUAACA, the “pre-steady-state target cleavage rate” value turned out to be 0.165 ± 0.018.

Consider UAGUGACUCACCUUCUCUCAGACAUUAACA, for which the “pre-steady-state target cleavage rate” value was found to be 0.022 ± 0.0053.

As for UAGUGACACUGGUUCUCUGAGAGAUUAACA, the “pre-steady-state target cleavage rate” value was 0.0992 ± 0.0058.

In the case of UAGUGACAGUGGAAGUCUGACAGAUUAAGA, the “pre-steady-state target cleavage rate” value was less than 0.0001.

For UAGUGUGUCACCUUGUCUGUGAGAUUAACA, the “pre-steady-state target cleavage rate” value turned out to be 0.0348 ± 0.0058.

For the sequence UAGUGUGUCAACCUUCUCUGAGAGAUUAACA, the “pre-steady-state target cleavage rate” value was 0.0779 ± 0.012.

Regarding UAGUCUGUCACUCUUCUCUGAGAGAUUAACA, the “pre-steady-state target cleavage rate” value is 0.123 ± 0.0081.

On to UAGUGACACACCUUCUCUGAGAGCUUAACA, for which the “pre-steady-state target cleavage rate” value was 0.091 ± 0.013.

Regarding UAGUGAGUCACGUACUCUGAGAGAUUAACA, the “pre-steady-state target cleavage rate” value stood at 0.119 ± 0.0087.

Regarding UAGUGUGUCACCUUCUCUUAGAGAUUAACA, the “pre-steady-state target cleavage rate” value came to 0.0988 ± 0.011.

UAGUGACACACCUUUUCUGAGAGAUUAACA: the “pre-steady-state target cleavage rate” value amounted to 0.123 ± 0.013.

UAGUGACUCACCUUCUCUGAGAUAUUAACA: the “pre-steady-state target cleavage rate” value stood at 0.0786 ± 0.012.

As to UAGUGACAGACCUUCUCUGAGAGAUCAACA, the “pre-steady-state target cleavage rate” value amounted to 0.078 ± 0.029.

As to UAGUCUGUCACCUUGUCUGAGAGAUUUACA, the “pre-steady-state target cleavage rate” value was found to be 0.144 ± 0.032.

As for UAGUGACAGACCUUCUCUGUGAGAUUAUCA, the “pre-steady-state target cleavage rate” value is 0.0125 ± 0.0065.

UAGUGUGUCACCUUCUCUGAGAGUUUAUCA: the “pre-steady-state target cleavage rate” value came to 0.198 ± 0.066.

For UAGUCUGUCACCUUGACUGAGAGAUUAACA, the “pre-steady-state target cleavage rate” value worked out at 0.0531 ± 0.0079.

As for “UAGUCUGUCACCUUCUCUGAGAGAUUAACA [g2:g26:cont:t1A]”, the “pre-steady-state target cleavage rate” value amounted to 0.22 ± 0.013.

On to UAGUGACACACCUUCUCUGAGAGAUAAACA, for which the “pre-steady-state target cleavage rate” value is 0.114 ± 0.019.

In the case of UAGUGACAGUCCUUCACAGAGAGAUUAACA, the “pre-steady-state target cleavage rate” value is 0.0077 ± 0.0037.

As to UAGUGACAGUCCUUCACUGAGAGAUUUACA, the “pre-steady-state target cleavage rate” value amounted to 0.00586 ± 0.0042.

As for UAGUGACACUCCUACUCUGAGAGAUUAACA, the “pre-steady-state target cleavage rate” value was 0.0925 ± 0.0083.

Regarding UAGUGUCUCUCCUUCUCUGAGAGAUUAACA, the “pre-steady-state target cleavage rate” value stood at 0.0622 ± 0.013.

For UAGUGAGUCACCUUCUCUGAGAGAUUAGCA, the “pre-steady-state target cleavage rate” value came to 0.168 ± 0.036.

As to UAGUGACUCACCAUCUCUGAGAGAUUUACA, the “pre-steady-state target cleavage rate” value was 0.0751 ± 0.013.

As to UAGUGACACACGUUCUCUGAGACAUUAACA, the “pre-steady-state target cleavage rate” value came out at 0.00413 ± 0.0027.

As to UAGUGACAGUCCUACUCUGAGAGAUUUACA, the “pre-steady-state target cleavage rate” value stood at 0.00954 ± 0.0021.

As for UAGUGACUCACCUUCUCUGUGAGAUUAUGA, the “pre-steady-state target cleavage rate” value was 0.00983 ± 0.0044.

For UAGUGACAGACCUUGUGUGAGAGAUUAACA, the “pre-steady-state target cleavage rate” value turned out to be 0.0439 ± 0.0099.

For UAGUGACAGUGCUUCUCUGAGAGAUUACACA, the “pre-steady-state target cleavage rate” value is 0.00804 ± 0.0026.

For the sequence UAGUGACAGACCUUCUCUGUGAGUUUAACA, the “pre-steady-state target cleavage rate” value was 0.0183 ± 0.0069.

For UAGUGACACACGUUGUCUGAGAGAUUAACA, the “pre-steady-state target cleavage rate” value stood at 0.126 ± 0.0098.

Regarding UAGUGAGACACCUUCUCAGAGAGAUUAACA, the “pre-steady-state target cleavage rate” value worked out at 0.0908 ± 0.011.
